Laboratory results published in the supplement of paper PMC3334620.
In all, about 33,000 sequences were measured (“E-score (-0.5 to 0.5)”: median about -0.056, highest 2% from about 0.38 on). The list shows a part of the results.

biological target: Stb4 (UniProt P50104); test: PBM E-score (8-mer binding enrichment) (E-score (-0.5 to 0.5)); higher = stronger / more preferred TF binding; most listed sequences are background and not binding sites; settings: protein concentration: 200 nM; construct: GST-DNA-binding domain
Procedure, shortened: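 Detection of bound protein used fluorescent anti-GST, with scans normalised by masliner. The proteins were GST-tagged yeast transcription factors applied at about 100-200 nM to universal all-10-mer Agilent arrays made double-stranded by primer extension. Each ungapped eight-base word, pooled with its reverse complement, was scored with an E-score from the Universal PBM Analysis Suite.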

Sequence | PBM E-score
AATGTCCC | 0.169
ACGTTCGC | -0.0823
TATGGACA | -0.156
CCATGAAC | 0.0534
AGAACGGC | 0.08
ACTGGCTC | -0.119
AATCAACG | 0.0384
CAGGTGCG | -0.117
AGTCGTGC | -0.13
AGGTCCCC | -0.123
ATGTTAGC | -0.116
AGTTGCAC | 0.0381
TAGTTAGA | -0.0831
ACTCAATC | -0.146
ACATGTTG | -0.0905
CCAAATCC | 0.0248
ACATTTCC | 0.141
GCGAGGGA | -0.129
GATTCAGC | -0.0491
CAATAATG | -0.129
TGAAGAAA | -0.0334
GAAGACAA | -0.0366
TCCTATAA | -0.222
GCCTAGAA | -0.0774
CTATCCGA | 0.469

Sequence | PBM E-score
CAGACTGG | -0.231
CCACATCC | 0.164
CAAAAATA | 0.124
GGTTGTAC | 0.132
GTCGAAAC | -0.0645
ATGAACGC | -0.171
GCCACGCC | -0.282
ATAGCGTC | -0.209
CTACAGGC | -0.0531
CACTTCGA | -0.0805
GGGTATTA | 0.248
ACCCGAAA | 0.435
ACGAGGTC | -0.278
GCGGGTAA | 0.325
AGCATTAT | -0.241
CATAGAGG | -0.245
GGCCGTAC | 0.115
CGTCATGA | -0.109
ATACCGAG | 0.377
AATTAGGC | -0.0154
CGTGAACA | -0.0865
ATATGTGC | 0.00479
CTCATTTC | -0.0307
ACTGGTAC | 0.148
ATTTGCCC | 0.124

Sequence | PBM E-score
CCTAATTA | -0.133
CCCCCATC | -0.104
AATCCGGC | 0.241
GTCCTTAA | -0.161
TAGGTCAA | -0.197
CGTAATAG | -0.16
ATAGTCTA | -0.0562
TCCGTCCA | 0.279
CCACCTGC | 0.0341
CAGTCATC | 0.0653
CGTACCGA | 0.334
CCTTTCTC | -0.266
CTGCATCC | 0.178
ACAAACAA | -0.0425
ATATATTC | 0.195
GTTTTGCA | -0.0786
GAGCTTCA | 0.0204
AGTTTCTG | -0.025
CGAACGAA | 0.0902
AGCTCTCA | -0.0992
CTAAGCAA | -0.171
GTTTAGTA | -0.181
AAGCTCTG | -0.268
ACGAATTG | -0.243
CAAGTTTA | -0.136

Sequence | PBM E-score
GCGGTTAC | 0.14
GATCGAAC | -0.148
CCCAGTGC | -0.0453
ACCACTCG | 0.113
CCCTCCTC | -0.053
GTAGTGGA | -0.116
AGTCTTTG | -0.165
AAATAAGT | -0.18
ATAGCAGC | -0.158
ACCCTAGC | -0.125
ATACATAC | -0.227
TAACAGCA | -0.0784
ACGGTTAG | 0.118
GCTGAGGA | -0.143
AATCCGAG | 0.407
AGGAATGC | -0.136
AACAGCAC | 0.151
CTTTGACC | -0.0346
TCTTTCAA | -0.0903
GGCCTTGA | -0.0254
GCATCGGA | 0.359
CGGATTCA | 0.19
ACGTACCA | -0.142
AATCTCTC | -0.0961
AAGAACCG | 0.252

Sequence | PBM E-score
CATCTCTA | -0.169
ACATTCCT | 0.0113
AGCCGAAC | 0.411
CCCCCAAG | -0.229
CCAGCACG | -0.0292
GCGGTTCA | -0.0793
GCAACCTA | -0.248
GACCGCAA | 0.151
CGCCGATC | 0.241
TGGGACAA | -0.203
GCCAAAAA | 0.0633
ATAAACAC | -0.118
ACGAACAG | -0.15
CACAAACC | -0.0992
ATGCACGA | -0.123
AACTACAT | -0.0449
CCTCCAGG | -0.191
ACTTCTAT | -0.262
CTCAGGAC | -0.188
ACATGGAG | -0.194
GAGCTCCA | -0.14
ACAAGTGT | -0.0567
ATAATTAA | 0.0829
AGCATCAC | -0.158
GCACCGCC | 0.0908

Sequence | PBM E-score
AGCAGGGC | -0.167
ACGATCTG | -0.128
CGCCCTGA | -0.185
CTGGTATC | -0.15
GCATGAAA | -0.101
GATCGGTA | 0.407
AAGACATT | -0.0502
AAACTCTT | -0.211
CTAGTGCC | 0.0204
GACAAGGA | -0.179
CCTTGGAA | -0.0789
GTGGCGGA | 0.137
AGGATACA | -0.261
AATCCGTC | 0.225
GAACGGGA | 0.282
ACCCAAGC | -0.152
CGAAGAAG | 0.0957
AGAAATCC | 0.114
AGGGATTA | -0.244
CCTGAGCA | -0.19
ACTACCAC | -0.121
AGTCTCAA | 0.0271
GAGTGGCA | 0.0169
ACTACCTG | 0.0335
GTACACAC | -0.0518

Sequence | PBM E-score
ACAAGGCA | -0.173
CAGCCACG | -0.0108
TGACTAAA | -0.201
CTTGATGA | 0.102
CTAAATAC | -0.0567
TGGGCCCA | -0.105
TAACCAAA | -0.057
AAAAGGCT | -0.0374
CCGACATA | 0.252
ACTAGGTA | -0.202
ACCGTCGA | -0.182
ATTGAGAA | -0.0694
GGCGTAAA | 0.1
CGTCGAAG | -0.0867
ACCTGTCG | 0.0699
AGTGGTAA | -0.138
CGTCCATC | 0.228
CGAAGATC | 0.101
AGGCTAAG | -0.199
CGATTACC | 0.177
CTTCGCTA | -0.109
AGACAAAT | -0.166
